# Toxic doses and inconclusive results are not listed. Certain results were filed several times, with different values. The list is limited to them. The source may hold further records. Results that share an entry differ, and nothing given here explains why; they may come from other doses, times, organisms or constructs than stated.
# Tested on: L1210 leukemia ip in BDF1 mice, survival T/C
# Assay: NCI In Vivo Anticancer Drug Screen. Data for tumor model L1210 Leukemia (intraperitoneal) in B6D2F1 (BDF1) mice
# Conditions: endpoint: mean survival time; dose: 400.0 mg/kg/injection; schedule: Q01DX001 (ip); vehicle: carboxymethylcellulose (CMC); higher = longer survival
structure (smiles),measurement,value
CCCCCN(C)/N=N/c1nc[nH]c1C(N)=O,T/C,97 % of control and 170 % of control

# — PubChem BioAssay AID248 (DTP/NCI, 2004)
